Article doi:10.1101/2024.11.07.622398 (bioRxiv, 2024)

Target: T1, His-GST-tagged human UBA1 (human, UniProt P22314 1-1058)
T1 sequence (looked up): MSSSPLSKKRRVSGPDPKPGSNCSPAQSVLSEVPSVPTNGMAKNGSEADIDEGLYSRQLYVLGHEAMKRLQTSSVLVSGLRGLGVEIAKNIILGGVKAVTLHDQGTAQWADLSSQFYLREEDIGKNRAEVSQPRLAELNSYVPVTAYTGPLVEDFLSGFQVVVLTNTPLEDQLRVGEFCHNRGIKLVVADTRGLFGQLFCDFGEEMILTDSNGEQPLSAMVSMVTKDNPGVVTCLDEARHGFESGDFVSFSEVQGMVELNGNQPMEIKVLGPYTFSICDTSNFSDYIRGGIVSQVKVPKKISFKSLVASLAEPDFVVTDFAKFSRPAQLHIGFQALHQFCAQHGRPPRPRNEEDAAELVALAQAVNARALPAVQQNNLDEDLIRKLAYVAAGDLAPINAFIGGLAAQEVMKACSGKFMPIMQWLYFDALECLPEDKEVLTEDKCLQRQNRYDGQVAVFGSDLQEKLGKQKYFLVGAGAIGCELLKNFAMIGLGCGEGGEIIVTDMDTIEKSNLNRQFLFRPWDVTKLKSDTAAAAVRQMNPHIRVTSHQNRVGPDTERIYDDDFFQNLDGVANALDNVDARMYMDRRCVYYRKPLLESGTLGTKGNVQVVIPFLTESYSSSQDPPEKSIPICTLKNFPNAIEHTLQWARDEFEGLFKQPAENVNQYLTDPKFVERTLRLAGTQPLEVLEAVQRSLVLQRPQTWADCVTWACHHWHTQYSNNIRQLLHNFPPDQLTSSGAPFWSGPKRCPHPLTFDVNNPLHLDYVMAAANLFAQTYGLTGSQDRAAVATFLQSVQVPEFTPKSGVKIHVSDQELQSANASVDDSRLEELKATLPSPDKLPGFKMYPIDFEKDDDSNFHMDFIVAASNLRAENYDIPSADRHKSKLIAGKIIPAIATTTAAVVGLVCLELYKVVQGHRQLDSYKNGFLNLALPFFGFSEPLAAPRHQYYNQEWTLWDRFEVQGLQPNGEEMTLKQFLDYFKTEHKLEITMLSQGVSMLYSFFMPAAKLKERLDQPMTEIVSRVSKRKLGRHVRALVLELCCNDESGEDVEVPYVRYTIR
Assay: BLI

B1: human UBE2L3(C86A) (enzyme)
chain: not shown
Kd: 16.8 µM
